In the experiment the target is GTPase KRas (Homo sapiens) (UniProt P01116). In words: Covalent labelling of cysteine mutants by fragments, read by mass spectrometry (AID 2202238). Also noted: protein at 5 µM with 500 µM competing thiol for 1.5 h. As to conditions: KRAS G12D cysteine mutants, disulfide tethering, MALDI-TOF labeling, stronger effect = higher value, fragment at 500 µM.
[1] abbreviates: measured here: G75C mutant labeling.
Setting [2] is: measured here: H94C mutant labeling.
[3] abbreviates: measured here: I36C mutant labeling.
[4] abbreviates: measured here: L120C mutant labeling.
The mark [5] stands for this setting: measured here: M67C mutant labeling.
Where [6] appears, read: measured here: M72C mutant labeling.
Where [7] appears, read: measured here: N86C mutant labeling.
Where [8] appears, read: measured here: P121C mutant labeling.
Where [9] appears, read: measured here: S122C mutant labeling.
Where [10] appears, read: measured here: S136C mutant labeling.
[11] abbreviates: measured here: G60C mutant labeling.
[12] abbreviates: measured here: N26C mutant labeling.

This is one part of the list. Shown are side measurements of this screen, not its main read-out; they come without a call.

Chain of UniProt P01116 (P01116 whole entry, looked up, the tested form may be a part): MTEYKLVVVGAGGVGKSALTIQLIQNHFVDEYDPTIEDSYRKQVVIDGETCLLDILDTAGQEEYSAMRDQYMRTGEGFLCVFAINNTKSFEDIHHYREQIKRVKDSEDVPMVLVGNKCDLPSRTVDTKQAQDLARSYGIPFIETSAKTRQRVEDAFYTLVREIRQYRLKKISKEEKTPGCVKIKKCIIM

On to `O=C(CCS)NCCN1CCN(C(=O)C2CCC2)CC1`, for which the percent labeling was 7.6% under setting [1]; 31.9% under setting [2]; 40.1% under setting [3]; 30.5% under setting [4]; 39.5% under setting [5]; 15.6% under setting [6]. Besides, the percent labeling by setting is: under setting [7], 19%; under setting [8], 34.3%; under setting [9], 28%; under setting [10], 44.9%.
Consider `Cc1cc(NC(=O)CCS)nn1-c1cccc(Cl)c1`, for which the percent labeling is, setting by setting: under setting [1], 15.7%; under setting [2], 21.2%; under setting [3], 17.2%; under setting [4], 21.8%; under setting [5], 21.9%; under setting [6], 40.6%. Besides, the percent labeling by setting is: under setting [7], 15.6%; under setting [8], 18%; under setting [9], 16.4%; under setting [10], 29.7%.
For the compound `COC1(c2cccc(C(=O)NCCS)c2)COC1`, the percent labeling by setting is: under setting [11], 31.8%; under setting [1], 15.6%; under setting [2], 37.3%; under setting [3], 25.9%; under setting [4], 38.1%; under setting [5], 32.2%. The percent labeling came to 32.6% under setting [6]; 45.3% under setting [12]; 25.1% under setting [7]; 30.1% under setting [8]; 31.7% under setting [9]; 50.6% under setting [10].
With `CC(F)(F)c1cncc(CNC(=O)CCS)c1`, the percent labeling under setting [1] worked out at 13.2%; the percent labeling under setting [2] amounted to 29.5%; the percent labeling under setting [3] came to 39.3%; the percent labeling under setting [4] worked out at 37%; the percent labeling under setting [5] amounted to 38.7%; the percent labeling under setting [6] stood at 24%. For the same compound, the percent labeling was 18.8% under setting [7], 34.9% under setting [8], 34.7% under setting [9] and 47.7% under setting [10].
`Cc1c(C(=O)NCCS)cnn1CCC(C)C` showed a percent labeling under setting [11] of 40%; a percent labeling under setting [1] of 20.6%; a percent labeling under setting [2] of 27.2%; a percent labeling under setting [3] of 19.9%; a percent labeling under setting [4] of 37.6%; a percent labeling under setting [5] of 27.9%. The percent labeling is, setting by setting: under setting [6], 48.5%; under setting [12], 46.3%; under setting [7], 21.4%; under setting [8], 26.3%; under setting [9], 31.8%; under setting [10], 48.8%.
Regarding `O=C(CCS)N(Cc1ccccc1)Cc1ccccc1`, the percent labeling was found to be 16.8% under setting [1]; 23.1% under setting [2]; 14.5% under setting [3]; 27.4% under setting [4]; 23.3% under setting [5]; 38.2% under setting [6]. Also, the percent labeling was found to be 23% under setting [7], 20.1% under setting [8], 16.1% under setting [9] and 39.3% under setting [10].
For the compound `Cn1c(=O)n(C)c2cc(N3CCCCC3)c(NC(=O)CCS)cc21`, the percent labeling by setting is: under setting [1], 7%; under setting [2], 27.9%; under setting [3], 17.2%; under setting [4], 6.2%; under setting [5], 20.1%; under setting [6], 36.2%. In addition, the percent labeling under setting [7] is 13.3%, the percent labeling under setting [8] was 6.4%, the percent labeling under setting [9] is 6.9% and the percent labeling under setting [10] came to 18.5%.
As to `O=C(CCS)N(CCN1CCOCC1)c1ccccc1F`, the percent labeling reads like this: under setting [1], 16.1%; under setting [2], 43.3%; under setting [3], 33.6%; under setting [4], 32.3%; under setting [5], 44.2%; under setting [6], 29.9%. The percent labeling reads like this: under setting [7], 19.3%; under setting [8], 34.6%; under setting [9], 35.7%; under setting [10], 57.2%.
With `CC(C)CCc1cc(NC(=O)CCS)n[nH]1`, the percent labeling reads like this: under setting [1], 26%; under setting [2], 25.5%; under setting [3], 27.5%; under setting [4], 31.5%; under setting [5], 23.6%; under setting [6], 56.2%. This compound also displayed a percent labeling under setting [7] of 27.6%, a percent labeling under setting [8] of 29.8%, a percent labeling under setting [9] of 27% and a percent labeling under setting [10] of 41.4%.
With `Cc1cccn2cc(COc3ccccc3C(=O)NCCS)nc12`, the percent labeling under setting [11] was determined as 36.6%; the percent labeling under setting [1] stood at 24.1%; the percent labeling under setting [2] stood at 34.8%; the percent labeling under setting [3] stood at 17.6%; the percent labeling under setting [4] was 13.6%; the percent labeling under setting [5] was found to be 20.6%. For the same compound, the percent labeling worked out at 40.2% under setting [6]; 29.1% under setting [12]; 10.4% under setting [7]; 13.1% under setting [8]; 10.5% under setting [9]; 28.2% under setting [10].
On to `O=C(NCCS)c1cnc(-c2cnccn2)s1`, for which the percent labeling is, setting by setting: under setting [11], 15.6%; under setting [1], 11.6%; under setting [2], 16.5%; under setting [3], 16.5%; under setting [4], 16.7%; under setting [5], 8.4%. Also, the percent labeling is, setting by setting: under setting [6], 39.6%; under setting [12], 28.5%; under setting [7], 11.1%; under setting [8], 11.1%; under setting [9], 10.4%; under setting [10], 24.9%.
Consider `CC1(C)C(=O)Nc2ccc(CNC(=O)CCS)cc21`, for which the percent labeling reads like this: under setting [1], 14.2%; under setting [2], 39%; under setting [3], 41.7%; under setting [4], 32.2%; under setting [5], 46.4%; under setting [6], 26.9%. The percent labeling under setting [7] was determined as 27%, the percent labeling under setting [8] turned out to be 29.5%, the percent labeling under setting [9] was determined as 30.7% and the percent labeling under setting [10] came to 51.3%.
On to `O=C(CN1C(=O)CCOc2ccccc21)NCCS`, for which the percent labeling runs as follows: under setting [11], 34.4%; under setting [1], 15.5%; under setting [2], 35.7%; under setting [3], 28.4%; under setting [4], 55.4%; under setting [5], 38%. This compound returned a percent labeling under setting [6] of 25.9%; a percent labeling under setting [12] of 37.2%; a percent labeling under setting [7] of 31.2%; a percent labeling under setting [8] of 37.3%; a percent labeling under setting [9] of 36.4%; a percent labeling under setting [10] of 51.7%.
Turning to `O=C(CCS)N1CCC(Cn2cncn2)CC1`, the percent labeling was 12.2% under setting [1]; 23% under setting [2]; 39.9% under setting [3]; 30.1% under setting [4]; 31.8% under setting [5]; 14.6% under setting [6]. For the same compound, the percent labeling amounted to 24.4% under setting [7], 32.3% under setting [8], 35.1% under setting [9] and 50.6% under setting [10].
Regarding `O=C(CCS)NCCc1cc(O)cc(F)c1`, the percent labeling stood at 16% under setting [1]; 36.8% under setting [2]; 42.4% under setting [3]; 29.1% under setting [4]; 40.6% under setting [5]; 43.1% under setting [6]. In addition, the percent labeling under setting [7] is 31%, the percent labeling under setting [8] worked out at 34.8%, the percent labeling under setting [9] amounted to 35.9% and the percent labeling under setting [10] is 51.9%.
Turning to `Cc1nnnn1C(Cc1ccc(F)cc1)C(=O)NCCS` (configuration not stated), the percent labeling stood at 54.8% under setting [11]; 29.7% under setting [1]; 37.1% under setting [2]; 36% under setting [3]; 33.4% under setting [4]; 41.4% under setting [5]. In addition, the percent labeling by setting is: under setting [6], 47.5%; under setting [12], 46.5%; under setting [7], 37.2%; under setting [8], 37.8%; under setting [9], 34.4%; under setting [10], 45.9%.

For the origin of these results see PubChem BioAssay AID2202238 (Ras Initiative Chemistry Research Team, Frederick National …, 2025).
